Laboratory results: the supplement of paper PMC4166925
± gives the standard deviation of the averaged measurements. In all, about 33,000 sequences were measured (“E-score (dimensionless, -0.5 to 0.5)”: median about -0.046, highest 2% from about 0.36 on). The list shows a part of the results.

test system: T1, SpTbr T-box DNA-binding domain (GST fusion); test: PBM E-score of 8-mer (E-score (dimensionless, -0.5 to 0.5)); Tbr is Tbrain of the sea star Patiria miniata (Pm) or the sea urchin Strongylocentrotus purpuratus (Sp); higher = stronger binding preference; most listed sequences are background and not binding sites; conditions: the construct has about 5 more residues each side
T1 sequence: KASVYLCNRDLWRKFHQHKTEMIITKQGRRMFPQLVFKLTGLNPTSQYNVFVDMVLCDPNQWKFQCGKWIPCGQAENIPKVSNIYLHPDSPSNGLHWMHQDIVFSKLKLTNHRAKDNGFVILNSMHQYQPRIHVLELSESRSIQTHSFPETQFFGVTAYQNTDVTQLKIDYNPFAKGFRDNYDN
Procedure, shortened: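 Expression of GST-fused Tbr T-box DNA-binding domains, each holding the full T-box plus roughly five flanking residues, was carried out in BL21 E. coli at 20 °C, with purification by glutathione affinity chromatography. Universal Agilent arrays made double-stranded by primer extension were incubated with the protein at 200 nM in PBS (pH 7.5), then scanned and quantified. All ungapped 8-mers were scored from probe intensities, and each received an enrichment E-score from the Universal PBM Analysis Suite, averaged over duplicate arrays.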

Sequence | PBM E-score of 8-mer
ACGCGAAC | 0.276 ± 0.003
CGAGATAC | -0.0218 ± 0.054
GAAATACA | 0.0816 ± 0.0046
GTGGTCAA | 0.0319 ± 0.018
AAGAAGAG | -0.304 ± 0.076
CTCTGGGA | 0.00265 ± 0.049
AGTCCACC | -0.2808 ± 7.1e-06
AGTGGGCA | -0.17 ± 0.035
ATTACCAG | -0.131 ± 0.019
ACATCTCA | 0.0408 ± 0.0016
TTCTAGAA | -0.0508 ± 0.067
ACAACTGG | 0.168 ± 0.023
ACGGGTCC | -0.0823 ± 0.013
ATAAGACG | -0.05511 ± 0.00039
ACCGCGCG | 0.147 ± 0.073
TATCCTGA | -0.209 ± 0.064
GATATCCA | 0.0554 ± 0.047
ATCAAAAA | -0.192 ± 0.085
CGTGACTC | 0.13 ± 0.042
CGTCACAC | 0.43 ± 0.011
CCCTCCAC | -0.0145 ± 0.018
CAGCAGGG | -0.189 ± 0.0067
AACATTAG | 0.0046 ± 0.0078
TACAAAAA | -0.168 ± 0.0046
GCACAGGC | -0.108 ± 0.0069

Sequence | PBM E-score of 8-mer
CAGACGGC | -0.105 ± 0.055
CGGGCCGC | -0.2 ± 0.042
AGCAGGCG | -0.00857 ± 0.028
GACGTTGA | -0.0364 ± 0.041
CGTTTCAG | -0.0207 ± 0.028
AGCATGAG | -0.0765 ± 0.057
CATTTACC | -0.0174 ± 0.1
CACAGTCA | 0.186 ± 0.015
ACGTACCC | -0.0341 ± 0.018
AATATGTG | 0.215 ± 0.065
CGTCAAAG | 0.228 ± 0.028
CCTTATAA | -0.146 ± 0.028
TCAGCGGA | -0.161 ± 0.074
GTGTGGGA | 0.387 ± 0.038
CATTCATC | -0.0954 ± 0.032
CGAAAACG | 0.0298 ± 0.05
CGGATGGA | -0.235 ± 0.07
GCCTTATA | -0.0978 ± 0.007
AATGATCT | -0.0474 ± 0.036
CCAAAAGC | -0.124 ± 0.062
CAGGCATC | -0.256 ± 0.098
AGCATACC | -0.12 ± 0.0049
AGGATTAT | -0.0469 ± 0.026
ACAACTCG | 0.288 ± 0.0067
ATCGAACC | -0.25 ± 0.025

Sequence | PBM E-score of 8-mer
ACAGTACC | -0.0527 ± 0.046
ACTTTCGC | 0.328 ± 0.038
AACCAGGT | 0.0996 ± 0.0088
AGGGCCGC | -0.145 ± 0.028
GAAGTTCA | -0.112 ± 0.02
AACCGCGC | 0.0168 ± 0.098
AGGTGGAG | 0.158 ± 0.025
CGATGCGA | 0.187 ± 0.025
GAAACAAA | -0.186 ± 0.032
CTAGCTAG | 0.0179 ± 0.0045
AGACGACC | -0.0246 ± 0.039
AAAGAAAG | -0.17 ± 0.0099
AGCGACCT | -0.0731 ± 0.0067
GCTAGTCC | -0.0719 ± 0.0034
AATTCTCA | 0.265 ± 0.042
AATAGCAT | -0.0159 ± 0.004
AGCTCTGA | -0.163 ± 0.0077
ATCGTGGC | 0.0387 ± 0.04
GGGGATTA | -0.0282 ± 0.03
TGCAAAAA | 0.0559 ± 0.2
ATTTCTCG | 0.0339 ± 0.025
CCGGTTGA | -0.16 ± 0.053
GGCTGATA | -0.226 ± 0.048
AGGAGCGC | 0.0349 ± 0.016
ACGAGCGG | -0.186 ± 0.062

Sequence | PBM E-score of 8-mer
GTACGGAC | -0.212 ± 0.053
GAATTACC | -0.0341 ± 0.024
GGCTGCCC | -0.158 ± 0.031
GCGCCAGC | 0.141 ± 0.077
ACAGGGGG | -0.0508 ± 0.041
AAATGGAT | -0.128 ± 0.018
ATCCCGGA | -0.258 ± 0.033
CAACCAGC | -0.0764 ± 0.038
CGAGTATC | -0.139 ± 0.032
AACAGTAA | 0.0105 ± 0.028
AATCTGCG | -0.0341 ± 0.043
ACTAGAGT | -0.0721 ± 0.018
CCCTTTAC | 0.0367 ± 0.0033
AAAAAGTA | -0.0248 ± 0.024
ACAGCTCT | 0.176 ± 0.0073
ACTGTTAA | 0.261 ± 0.036
CTCTAGAG | -0.203 ± 0.05
ACGCCCGC | 0.163 ± 0.024
AACTTTCG | 0.00917 ± 0.0092
GATGACAC | 0.402 ± 0.0092
CAACGATG | 0.0119 ± 0.035
AATGGATA | -0.181 ± 0.002
AGGAAAAG | -0.134 ± 0.12
CCCTCTGA | -0.224 ± 0.046
GTCTGTCA | 0.0728 ± 0.055

Sequence | PBM E-score of 8-mer
CATCGTCA | 0.158 ± 0.023
GTGGGCCA | -0.12 ± 0.06
GTTCAGCA | 0.0282 ± 0.015
ATCGAGGC | -0.0694 ± 0.048
ACCTGGTG | 0.234 ± 0.0085
AAAGGAGT | -0.0705 ± 0.082
AATCGCGG | 0.126 ± 0.015
GGTCCAAC | -0.0949 ± 0.035
GACTGAAC | -0.127 ± 0.018
CGTCAGGA | 0.163 ± 0.015
GATGTACA | -0.0336 ± 0.047
CACCTGCC | 0.3954 ± 0.00044
AGATGTAT | -0.0952 ± 0.053
ACAGAATC | 0.0202 ± 0.0069
TATATTAA | -0.135 ± 0.0028
ACTGCGAC | 0.162 ± 0.037
TAACTCGA | -0.16 ± 0.039
AACTTGTC | 0.355 ± 0.03
CAGTAGCG | 0.213 ± 0.0017
CTAGGTAA | -0.13 ± 0.072
ACCGCTAG | -0.0258 ± 0.036
AAACGAGG | -0.116 ± 0.12
ACACGTGA | 0.283 ± 0.011
AACGCGAT | 0.205 ± 0.019
ATTAGAAT | -0.162 ± 0.029

Sequence | PBM E-score of 8-mer
CGCCAGAG | -0.0471 ± 0.025
CTGCAAAA | 0.0605 ± 0.04
ACGCATTG | 0.127 ± 0.0035
ATTACAGC | 0.0176 ± 0.052
AAAAGATG | -0.153 ± 0.13
CAGAACCA | -0.18 ± 0.05
CCGAGATC | -0.165 ± 0.038
GATCGTAA | -0.0521 ± 0.012
CCCAACTC | -0.0091 ± 0.025
CAAGGTTC | 0.047 ± 0.016
AAAACCTT | -0.132 ± 0.026
GACAAGAA | 0.00972 ± 0.027
GACGTCGC | 0.08563 ± 0.00018
CATGGGCC | -0.352 ± 0.015
ATATCGGC | -0.104 ± 0.099
CTATCCTC | -0.12 ± 0.074
TACCAGTA | -0.361 ± 0.026
GGAAGTAC | -0.323 ± 0.026
GTGCTGAA | 0.226 ± 0.037
GTCCCGAC | -0.036 ± 0.024
ACCGACGA | 0.121 ± 0.022
CATTAGGA | -0.198 ± 0.02
GGGTGGAA | -0.0683 ± 0.012
GGTCGTAC | -0.127 ± 0.1
TATTAAAA | 0.0261 ± 0.042

Sequence | PBM E-score of 8-mer
GAAGACTC | -0.1295 ± 0.00088
ACCGCGGT | 0.0296 ± 0.04
CCCTTCCG | 0.0125 ± 0.028
ATATATCC | -0.12 ± 0.0036
AGGTAGAT | -0.08012 ± 0.00015
GAGCGGCA | 0.0433 ± 0.066
CAAGCCCC | 0.0302 ± 0.027
CAGTGACA | 0.329 ± 0.0062
ATATAAAT | -0.117 ± 0.023
AACCCAAA | -0.1126 ± 0.001
ACTAGCTG | 0.0199 ± 0.043
CCCGCGAC | 0.0686 ± 0.01
AGTTAGCG | 0.304 ± 0.0085
CACTTAGA | 0.176 ± 0.055
GTAACAGA | 0.136 ± 0.03
CGTTACAA | -0.0936 ± 0.079
GGACTCAA | -0.166 ± 0.021
ATAACGAG | -0.141 ± 0.013
GGAACGCA | -0.145 ± 0.064
CTCGTAAA | -0.0792 ± 0.064
CATGTTTC | -0.111 ± 0.014
TGATTGAA | 0.00549 ± 0.057
